# Data taken from ChEMBL document CHEMBL1201862, “PubChem BioAssay data set” (2004).
# System: NCI-H322M
# Assay: DTP human tumour cell line panel, 48 h
row,SMILES,GI50
1,COc1cc2c(cc1O)-c1c(cnn1-c1ccc([N+](=O)[O-])cc1)CCC2,inactive: 17.5 µM
2,O=C(/C(=C/c1ccccc1)c1ccccc1)N1c2ccccc2CC1c1c[nH]c2ccccc12 (configuration not stated),inactive: > 100 µM
3,CC1CC(c2cccc3c2OCO3)=Nc2ccccc2S1 (configuration not stated),inactive: > 100 µM
4,Cc1cc(C(=O)NCCN(C)C)c2nc3ccccc3cc2c1,inactive: 2.13 µM
5,O=C(O)C(NCc1ccccc1)C(NCc1ccccc1)C(=O)O (configuration not stated),inactive: > 100 µM
6,COc1ccc(COCC(Cn2ccnc2)OCc2ccc(C(=O)O)cc2)cc1 (configuration not stated),inactive: > 100 µM
7,CC1=NN(C2=NS(=O)(=O)c3ccccc3N2C)C(=O)C1,inactive: > 100 µM
8,CC1(C)C2CCC(O)(C2)C1N (configuration not stated),inactive: > 100 µM
9,COc1cc(C(=O)C/C(CCC(=O)Nc2ccc(Cl)cc2C)=N/NC(=O)C(N)=O)ccc1O,inactive: > 100 µM
10,CN(C)c1ccc(/C=C2\C[C@H]3[C@@H]4CC=C5C[C@@H](O)CC[C@]5(C)[C@H]4CC[C@]3(C)C2=O)cc1,inactive: 18.5 µM
11,Cc1nc(O)c2ncn(CCO)c2n1,inactive: > 100 µM
12,COC(=O)c1ccc(CCC2=CC(=O)C=CC2=O)cc1,inactive: 26.2 µM
13,COc1ccc(C(=O)Nc2ccc(S(=O)(=O)NCC(=O)O)cc2)cc1,inactive: > 100 µM
14,CNc1ccccc1S(=O)(=O)c1ccccc1[N+](=O)[O-],inactive: > 100 µM
15,CC[C@]1(Cc2ccc(OC)c(OC)c2)[C@@H]2C[C@@H](C3OCCO3)ON2O[C@H](OC2CCCC2(c2ccccc2)c2ccccc2)[C@@H]1OC(C)=O (some centres not stated),inactive: 45.2 µM
16,CC(C(=O)n1nnc2ccccc21)N(c1ccccc1)c1ccccc1 (configuration not stated),inactive: > 100 µM
17,CCCCCCCCCCCC(=O)OCC1OC(n2cc(F)c(=O)[nH]c2=O)C(NC(=O)OCc2ccccc2)C(OC(=O)CCCCCCCCCCC)C1O (configuration not stated),inactive: > 100 µM
18,CCCCCCCc1ccc(-c2nnc(/N=N/c3ccc(OCCCCC)cc3)s2)s1,inactive: > 100 µM
19,CCCCC1=C(C(=O)N2CCOCC2)C2(OCCO2)C1Cl (configuration not stated),inactive: 90.4 µM
20,CC(C)CC1c2[nH]c3ccccc3c2C[C@H]2C(=O)NC(CCC(=O)OC(C)(C)C)C(=O)N12 (some centres not stated),inactive: 41.4 µM
21,Cc1ccc(-c2cc(O)c3cc4c(cc3n2)OCO4)cc1,inactive: 2.73 µM
22,COC(=O)c1ccc(NCC2=CC(=O)c3ccccc3C2=O)cc1,inactive: 16.9 µM
23,OCCO[P+]1(OCCO)n2c3ccc2C(c2ccccc2)=C2C=CC(=N2)C(c2ccccc2)=c2ccc(n21)=C(c1ccccc1)C1=NC(=C3c2ccccc2)C=C1,active: 0.14 µM

row,SMILES,GI50
1,O=C(O)C1C2CCC(O2)C1C(=O)Nc1cccc2cccnc12 (configuration not stated),inactive: > 100 µM
2,C=C(CCC(=O)N(CCc1c[nH]c2ccccc12)C(=O)c1ccccc1CSCC)C(=O)OC,inactive: 71.3 µM
3,Cn1c2c(c3ccccc31)CCN1C(=O)CCC21 (configuration not stated),inactive: > 10 µM
4,C/C(=C\c1csc(C)n1)[C@@H]1C[C@@H]2O[C@@H]2CCC[C@H](C)[C@H](O)[C@@H](C)C(=O)C(C)(C)[C@@H](O)CC(=O)O1.C/C(=C\c1csc(C)n1)[C@@H]1C[C@@H]2O[C@]2(C)CCC[C@H](C)[C@H](O)[C@@H](C)C(=O)C(C)(C)[C@@H](O)CC(=O)O1,active: 0.00524 µM
5,O=C(O)c1nc(-c2ccc(Cl)c(Cl)c2)nc2ccc(Cl)cc12,inactive: > 100 µM
6,O=C1C2=Cc3ccccc3CCN2c2ccc([N+](=O)[O-])cc21,inactive: > 100 µM
7,O=C(N/N=C/c1cc(Br)ccc1O)N/N=C/c1cc(Br)ccc1O,inactive: 7.62 µM
8,CCCCCCOP(=O)(OCCCCCC)C(NC(=O)OCC)(C(F)(F)F)C(F)(F)F,inactive: > 100 µM
9,O=NN(CC1(O)OCC(O)C(O)C1O)C(Cc1c[nH]c2ccccc12)C(=O)O (configuration not stated),inactive: > 100 µM
10,O=C(/C=C/c1ccccc1F)C(c1ccccc1)c1ccccc1,inactive: 5.92 µM
11,CN(C)CCNC(=O)Cn1ccc(=O)c2cc([N+](=O)[O-])ccc21,inactive: > 100 µM
12,COc1ccccc1/C=C1\NC(=S)N(/C=C2\C(=O)Oc3ccccc3C2=O)C1=O,inactive: 63.2 µM
13,N#Cc1c(N2CCOCC2)[nH]c(=O)c(C(c2c(Cl)cccc2Cl)c2c(O)c(C#N)c(N3CCOCC3)[nH]c2=O)c1O,inactive: 19.4 µM
14,O=C(Cc1cc(=O)oc2cc(O)ccc12)N/N=C/c1ccc(N(CCCl)CCCl)cc1,inactive: 18.3 µM
15,COc1ccc(O)c(C#N)c1C#N,inactive: > 100 µM
16,O=C1OC2c3ccccc3C(=O)C2(c2ccccc2)N1c1ccccc1 (configuration not stated),inactive: > 200 µM
17,CN1C=Cc2nccc3cc4c(c1c23)OCO4,inactive: 1.63 µM
18,O=C1CC2C(=O)N(Cc3ccccc3)C1C(S(=O)(=O)c1ccccc1)C2S(=O)(=O)c1ccccc1 (configuration not stated),inactive: 17.1 µM
19,Cn1c(N/N=C/c2ccccc2)nc(-c2ccc([N+](=O)[O-])cc2)c(C#N)c1=O,inactive: 28.1 µM
20,COC(=O)[C@@H]1[C@H](O)[C@H](C)[C@H](O)[C@@](C)(O)/C=C\C=C(\C)C(=O)Nc2c(C)c(OC(C)=O)c3c(c2O)C(=O)C(C)=C2OCOC(=C23)/C(C)=C/[C@@](C)(O)[C@H](O)[C@@H](C)[C@H]1OC(C)=O,inactive: > 100 µM and inactive: 69 µM
21,[O-][s+]1c2c(Cc3ccccc3)c(Cc3ccccc3)c1CCc1cccc(c1)CC2,inactive: 16.3 µM
22,O=C1C=CC(=O)c2c1c1c(c3c2C2c4ccccc4C3c3ccccc32)C2c3ccccc3C1c1ccccc12,inactive: 22.1 µM
23,CC#CCCCC1(C)CCCNC1=S (configuration not stated),inactive: > 10 µM

row,SMILES,GI50
1,COc1cc(OC(=O)c2ccccc2)cc2c1C(=O)C=CC2=O,inactive: 20.3 µM
2,Cc1nc2ccccc2nc1N1CCCC1,inactive: > 100 µM
3,O=CC1CCCc2ccccc21 (configuration not stated),inactive: > 100 µM
4,CC(C)C1OC(N)=C(C#N)C1(C#N)C#N (configuration not stated),inactive: > 100 µM
5,COC(=O)CC(C(C(=O)OC)C(=O)OC)N1C(=O)OCC1c1ccccc1 (configuration not stated),inactive: > 100 µM
6,NC(=O)C(=CNC(N)=S)C(N)=O,inactive: > 100 µM
7,COC(=O)c1c(C)cc2c(c1O)C1(O)C(=O)c3cc4c(c(O)c3C(=O)C1(OC)C(O)C2)C(=O)C=C(NC1OC(C)C(OC)C(O)C1OC)C4=O (configuration not stated),active: 0.258 µM
8,CCC/C(Cl)=N\OC(=O)Nc1ccc(F)cc1,inactive: > 100 µM
9,CC1(C)N=C(N)N=C(N)N1c1ccc(CCCCCCc2ccc(S(=O)(=O)F)cc2)cc1,inactive: 2.16 µM
10,CCN(CC)CSc1nc2ccccc2s1,inactive: > 100 µM
11,O=c1[nH]nc(Cc2ccccc2)n1/N=C\CC/C=N\n1c(Cc2ccccc2)n[nH]c1=O,inactive: > 100 µM
12,Nc1ccc([C@H]2C(=O)N[C@H]3CCC[C@H]32)cc1,inactive: > 100 µM
13,CCOC(=O)/C(C#N)=C/N(CC)/N=C/c1ccccc1,inactive: > 100 µM
14,NC(Cc1ccccc1)C(=O)NC(Cc1ccccc1)NC(=O)C(Cc1c[nH]c2ccccc12)C(=O)O (configuration not stated),inactive: > 100 µM
15,CC(=O)OC1[C@H]2c3cc4c(cc3CN3CCC(C[C@@H]1OC(C)=O)C23)OCO4 (some centres not stated),inactive: > 75 µM
16,NCC[Se][Se]CCN,inactive: 3.77 µM
17,C[C@@]12C(=O)OC(=O)[C@]1(C)[C@H]1CC[C@@H]2O1 [CANTHARIDIN],inactive: 2.02 µM
18,COc1ccc(CC(O)CN2CCOCC2)cc1 (configuration not stated),inactive: > 100 µM
19,C=C1C2=C(CCCC2)C(=O)OC12CCCCC2,inactive: > 100 µM
20,CCSCCC(N)C(=O)O (configuration not stated),inactive: > 100 µM
21,CN(C)C(=S)SCc1ccccc1,inactive: > 100 µM
22,Cc1ccc(/N=N/c2c(C)nn(-c3ccccc3)c2-c2ccccc2)c(Br)c1,inactive: > 100 µM
23,CCC(C)C(NC(=O)c1cccc2c(=O)c3ccccc3[nH]c12)C(=O)O (configuration not stated),inactive: > 100 µM

row,SMILES,GI50
1,CCOc1cccc(/C=N/N=C2\C(=O)Nc3c(Cl)cc(Cl)cc32)c1O,inactive: > 100 µM
2,CC(=O)O[C@H]1CC[C@H]2[C@@H]3CC[C@H]4Nc5c(cnn5S(C)(=O)=O)C[C@]4(C)[C@H]3CC[C@]12C,inactive: 73.6 µM
3,C[N+](C)(C)CC1CCCCC1=O (configuration not stated),inactive: > 100 µM
4,CSC(Cc1ccc2c(c1)Sc1ccccc1O2)=[N+]1CCOCC1,inactive: > 100 µM
5,NC(CCC(=O)O)(CCC(=O)O)CCC(=O)O,inactive: > 100 µM
6,Cc1nnc(N/N=C2\C(=O)Nc3ccccc32)n1N,inactive: > 100 µM
7,Cn1c(=O)c(C#N)c(O)c2cc3ccccc3nc21,inactive: > 100 µM
8,CC1=C[C@]2(O)C(=O)[C@H](C)C[C@H]3[C@@H](CC[C@@](C)(O)/C=C\2C1=O)C3(C)C,inactive: 45.3 µM
9,O=C(NC12CC3CC(CC(F)(C3)C1)C2)c1ccccc1,inactive: > 100 µM
10,Cc1oc2nc1C(=O)NCc1nc(cs1)C(=O)N[C@H](C(C)C)c1nc(cs1)C(=O)N[C@H]2C,inactive: 95.5 µM
11,CCP(C)(C)=O,inactive: > 100 µM
12,CCO/C=N/NC(=O)CSc1nc2ccc(I)cc2c(=O)n1Cc1ccccc1,inactive: > 100 µM
13,COc1ccc(/C=N\NC(=O)Nc2cccc3ccccc23)cc1,inactive: 61.4 µM
14,O=C(CC(Cl)=C(Cl)Cl)c1ccccc1,inactive: > 100 µM
15,N#CC1=C(N2CCOCC2)CCC1,inactive: > 100 µM
16,CC(C)(C)OC(=O)N/C(C=O)=C\C1CCCCC1,inactive: 23.8 µM
17,CN(C)CCc1c2c(nc3ccccc13)C(=O)c1cccnc1C2=O,active: 0.238 µM
18,CCC1(CCSC(=N)N)C(=O)NC(=O)NC1=O,inactive: > 100 µM
19,O=C(OCC1OC2OC(c3ccccc3)(n3ccc4c([N+](=O)[O-])ccnc43)OC2C1OC(=O)c1ccccc1)c1ccccc1 (configuration not stated),inactive: > 100 µM
20,O=C1OC(c2ccccc2)=N/C1=C\c1ccc(Cl)cc1,inactive: > 100 µM
21,O=C(O)C1C2C=CC(O2)C1C(=O)Nc1ccccc1 (configuration not stated),inactive: > 100 µM
22,CCCN(CCC)C(=O)Cc1c2n(c3ccccc13)Cc1ccccc1-2,inactive: 68.5 µM
23,N/N=C(\c1nc2ccc(Cl)cc2nc1O)C(O)c1ccc(Cl)c(Cl)c1 (configuration not stated),inactive: > 100 µM

# Several values for one entry are separate records, joined by “and”; a condition that tells them apart may be missing. Equal values may be shown once.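 The compound was tested at five concentrations on cells cultured in 96-well plates, with a 48-hour exposure period. GI50 = concentration required for 50% inhibition of growth.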 Activity calls are given as the source filed them. Rule as the data show it: active = GI50 up to about 1.1 µM and inactive = higher.
